The list shows a part of the results.
System: PF3D7_0420300 AP2 domain 1 (GST-tagged)
Experiment: gcPBM binding intensity (ln(normalized median fluorescence intensity)); higher = stronger DNA binding
Outline: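 Each value is the highest Masliner-normalised natural-log median intensity across replicate spots of either orientation of a probe. The probes were primer-extended double-stranded 36-bp intergenic genomic sequences on an Agilent 4 × 180k array, alongside negative controls, exposed for 1 h to GST-tagged P. falciparum DNA-binding domains expressed in E. coli. Bound protein was picked up with Alexa488 anti-GST antibody and scanned at 488 nm.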

Sequence | gcPBM binding intensity (ln)
ATAATATTTATAAATTGTACTAATGTTCAATAATTA [XGTACX_site7284] | 9.01
GAAATAATTTTTATTTGTACACACATACATATATAT [XGTACX_site1862] | 9.59
AAATTTTATAAAGGAACACACATTTTTTTTTTTTCT [CACACA_site2368] | 9.27
TTATTCATTTCGAAAAGTACAAATTCTGTTTATTAT [XGTACX_site6892] | 9.19
CCACTAATTATGTGCACACAAATTAAAGGTCTACAA [CACACA_site4259] | 9.46
TACATGATAAGATGTAGTACATAAAAGAATAAATTA [XGTACX_site787] | 9.34
TTTTCAAAAATATATACACACATGCATATTACGGTG [CACACA_site775] | 9.36
TATTCAATACTTAATGCACACAATAAAAAAAATATG [CACACA_site2467] | 9.36
ACGATAACATTTTTACGTACATATATTTTCACGGAG [XGTACX_site8764] | 9.28
AAATGAAAAATAAGGAAAAAAAAAAAAAAAAAAAAA [CACACA_negctrl_site1715] | 8.25
TAAAATATTTCAAAGGTGCAATGATAATTTAAGACG [GTGCAC_site9609] | 9.3
ATATTGACAGGAAAAATTTTCTTTGAATCTTTAAAA [CACACA_negctrl_site1191] | 8.73
ACAAAAAAAATAAGCACACATATATATATATATATA [CACACA_site816] | 9.36
TATGTTATATTGGACACACACAATAAACATTATGTA [CACACA_site1657] | 9.44
ATATATATATATAAGCGTACGCGTAGTTAAATTAAT [XGTACX_site7693] | 9.46
AAAAAAATAACAAAAGTGCATTTTTATGAGTTATCT | 9.2
ATATATAATTAATAAAGTACATTAATTATTTCTTTT [XGTACX_site3034] | 9.03
TATAATTAAAATTTGTGTACGTATGACAAAACATTT [XGTACX_site7072] | 9.2
AGATACAAGCACTATAGTACACATACTAAAAATATA [XGTACX_site5849] | 9.35
TTTCCTTACCCTTTCCTGGTGTAGAAATTATACTCT [TGCATGCA_negctrl_site116] | 9.22
AAAAAAAAAAAACATACACACATACATACAGATATA [CACACA_site4681] | 9.95
TTTCACTACACAAATACACACAAAAATATATGTGCA [CACACA_site2632] | 9.49
TTCTATTTTATATGTGCACACATATACACCCACAAA [CACACA_site1130] | 9.45

Sequence | gcPBM binding intensity (ln)
TTCTTTTTGAAACACACACACACAAGAAAATATATA [CACACA_site3110] | 10.1
AAATTTTTTGTTCAATGTACTTTTTTATTATATTTT [XGTACX_site5298] | 9.51
GATATATAATATAATACACACATTTTATGAATGTAA [CACACA_site24] | 9.48
ATTTTTTAAATTTAAACACACATTTTGTATATGTTT [CACACA_site1654] | 9.48
TCTACTATTATATATTGTACAAATGATACTTATATT [XGTACX_site1819] | 9.3
TTAAAATTTTTCAAAAGTACATAAATAATATATATT [XGTACX_site4694] | 8.91
AATATATTATATATATGTACATAATGTGTAATACCT [XGTACX_site2845] | 9.37
TTTTTTTTTGTTAAAGTGCATATATTAAATTTTCCT [GTGCAC_site9677] | 9.14
GGAAAAAAATATAAAAGTACTTTTTATTTATTTTAT [XGTACX_site7418] | 9.06
TTTATTTGTTCATGCGTGCACTTGATAACAATGTAC [GTGCAC_site9561] | 9.08
AAAAAAAATTCATATTGTACTTTTAAATTAAAGAAA [XGTACX_site4521] | 8.8
AGTGAATATCTAAAATGTACATAAATAAATAAATAA [XGTACX_site8293] | 9.19
CGTTATATCAAAGGAGTGCATTATGAATACGTTTTA [GTGCAC_site9837] | 9.14
AGATCTATTATTTTTTGTACTTATATATAAACTTAA [XGTACX_site1737] | 9.29
ATAGGCAAAAAGTGTACACATTCATTTATATAAATA [CACACA_site4480] | 9.24
AATGGTATAAACAATACACACATAATATAAATATTG [CACACA_site6878] | 9.58
TTATATATAAATGTGTGTACTTATAAAATAATCATT [XGTACX_site5370] | 9.35
TTCTATATATTTGGAAGTACATTATATTTATTTTTT [XGTACX_site3172] | 9.3
TAAAATTTTTGTTTTTGTACGAAACATCAATTTTAC [XGTACX_site4963] | 9
CATATATAAATATGTACACACATATGTATGATCTCA [CACACA_site3868] | 9.44
TTATTTATAAGTAATATTATATATTCTTTTAATACA [CACACA_negctrl_site471] | 8.9
ACAAAATTTTTAAGAACACACAAAAATGTACTATCG [CACACA_site2550] | 9.3
GAAAGGACAAGAATAGTGCACATGCAATGTTATTTT [GTGCAC_site9985] | 9.41

Sequence | gcPBM binding intensity (ln)
AATCATGCTCCGGAAAGTACATAAATAAATAAATAA [XGTACX_site1690] | 9.14
CACATACACATACAAACACACATTATGTATATATAT [CACACA_site1599] | 9.67
AAAAAAAAAAAACATACACACATACATACATATATA [CACACA_site8222] | 9.82
ATATATACAACTAAAGAACACACATCATTGTTCATT [CACACA_site9224] | 9.64
AAACAATTTTTTAAAAGTACTTGAAAATTGTGAAAT [XGTACX_site2461] | 9.17
AAAAAAATTACGCAAGTGCATATAATTTAACAAAAA | 9.1
ATATATATATATCACGCACACACGAATTTTAAATAT [CACACA_site3131] | 9.65
AATGGTAATCCACATACACACACACCGACACATATA [CACACA_site8876] | 10.1
AACATTTATATAAAAGAACACACATATAAAATATTA [CACACA_site9199] | 9.55
ATCGCGAAGTAGCATTCACACACAGCAAAATATATA [CACACA_site9162] | 9.52
CATTTACCCTTATTAACACACAAAATAAAATACGCT [CACACA_site7249] | 9.45
AAATAACAAAAGAAGGTGCTCATAAAAATTCATACA [GTGCAC_site9864] | 9.37
AACAATAGTAAAAATACACACATTAAACTTCATTTC [CACACA_site2126] | 9.71
AAAAAAAAAAAAAAAAAAAAAAAAAAAAAAAAAAAA [CACACA_negctrl_site204] | 9.43
ATACAATGATATATACATATATATATATATATATAT [TGCATGCA_negctrl_site359] | 9.46
AAATTATAAAAAAAAAAAAAAAAAAAAAAAAAAAAA [XGTACX_negctrl_site501] | 8.54
TTTAAAATATTAAAATGTACATATATATATATATAT [XGTACX_site6784] | 8.96
ATCCGCTGCCTTTTGGTGCAGAACATAATCATGTAA | 9.02
TATATATATATATATACACACATACATATATATATT [CACACA_site8185] | 9.29
ACATAAATATATTTTTCACACATCCTTAGTTATGAA [CACACA_site5179] | 9.23
AATGTATTTAAACTGACACACAAAAAAAATAAAATA [CACACA_site2138] | 9.53
ATATTGTAAGTAAACACACACACATCTATAGGTATA [CACACA_site6462] | 9.96
TGTATATTTGATTCATGTACATATTTTATTTTAACT [XGTACX_site5169] | 9.48

Sequence | gcPBM binding intensity (ln)
CAGATTTATTCAAACGCATGCTGTTTTAAAATAAAA [TGCATGCA_site874] | 8.66
CCTATATAATTATAATGTACTTGTAAAAAATATAAC [XGTACX_site2864] | 9.36
TAAGACTATTAAAAAATTGAGTACATGAACTGTTCA [GTGCAC_negctrl_site670] | 9.02
AAATATAAAAAATATACACACATATATAATATATAT [CACACA_site2963] | 9.55
CGTATAACATATGACACACACACATACATACACAAA [CACACA_site1803] | 9.98
GATTTATATAATTCAAGTACTAAAAATATTTTTAAT [XGTACX_site5285] | 9.01
AAAAAAAATATCTATGCATGTAATATTATGATATTG [TGCATGCA_site546] | 9.14
TAACATTAAAATAAAAGTACTTAATAATATTAAGTA [XGTACX_site5920] | 9.16
TTAATAATAAATGAAAGTACATATAAAAAAAAAAAA [XGTACX_site717] | 9.28
ATTATACATATGTATGCACACATACATACACATATA [CACACA_site9155] | 9.47
AATAGTAAAAGATATACACACACCAAAAAATAGAAT [CACACA_site2289] | 10.3
TAATTTAAGAAAAAATGTACACAAATATAATAATAG [XGTACX_site8317] | 9.37
ATATATATATGTTTATGTACTTATAATAATATAACT [XGTACX_site4828] | 9.26
ATACATATATGTGTGTGTACATAAATGTATATATTT [XGTACX_site6242] | 9.82
GCATGGAACCATATATGTACATATATAAATAAATAA [XGTACX_site4996] | 9.1
AACTTTATTCCTAATTGTACACATATATATATATAT [XGTACX_site6823] | 9.5
GTATCTTTCAAAATATGTACATATATATATGTGTGT [XGTACX_site3512] | 9.74
TGTAGCCTGGAGAAGAGTACATAGTATCTGGTAGCT [XGTACX_site4943] | 9.12
CGTATGTGCGGACATGCATGCAATATACAAGAAAAA [TGCATGCA_site145] | 9.08
GTATATTAATAAACATGTACACAATTTATTTATATT [XGTACX_site1012] | 9.35
